The whole screen tested about 310,000 compounds, of which about 2,200 (0.71%) showed an effect of 50% or more. The effect is printed as a negative number. Some of the results follow.
target: human ether-à-go-go-related gene (hERG) potassium channel (human, UniProt Q12809); assay: primary screen, population patch clamp on CHO cells stably expressing hERG
Sequence (Q12809 whole entry, looked up): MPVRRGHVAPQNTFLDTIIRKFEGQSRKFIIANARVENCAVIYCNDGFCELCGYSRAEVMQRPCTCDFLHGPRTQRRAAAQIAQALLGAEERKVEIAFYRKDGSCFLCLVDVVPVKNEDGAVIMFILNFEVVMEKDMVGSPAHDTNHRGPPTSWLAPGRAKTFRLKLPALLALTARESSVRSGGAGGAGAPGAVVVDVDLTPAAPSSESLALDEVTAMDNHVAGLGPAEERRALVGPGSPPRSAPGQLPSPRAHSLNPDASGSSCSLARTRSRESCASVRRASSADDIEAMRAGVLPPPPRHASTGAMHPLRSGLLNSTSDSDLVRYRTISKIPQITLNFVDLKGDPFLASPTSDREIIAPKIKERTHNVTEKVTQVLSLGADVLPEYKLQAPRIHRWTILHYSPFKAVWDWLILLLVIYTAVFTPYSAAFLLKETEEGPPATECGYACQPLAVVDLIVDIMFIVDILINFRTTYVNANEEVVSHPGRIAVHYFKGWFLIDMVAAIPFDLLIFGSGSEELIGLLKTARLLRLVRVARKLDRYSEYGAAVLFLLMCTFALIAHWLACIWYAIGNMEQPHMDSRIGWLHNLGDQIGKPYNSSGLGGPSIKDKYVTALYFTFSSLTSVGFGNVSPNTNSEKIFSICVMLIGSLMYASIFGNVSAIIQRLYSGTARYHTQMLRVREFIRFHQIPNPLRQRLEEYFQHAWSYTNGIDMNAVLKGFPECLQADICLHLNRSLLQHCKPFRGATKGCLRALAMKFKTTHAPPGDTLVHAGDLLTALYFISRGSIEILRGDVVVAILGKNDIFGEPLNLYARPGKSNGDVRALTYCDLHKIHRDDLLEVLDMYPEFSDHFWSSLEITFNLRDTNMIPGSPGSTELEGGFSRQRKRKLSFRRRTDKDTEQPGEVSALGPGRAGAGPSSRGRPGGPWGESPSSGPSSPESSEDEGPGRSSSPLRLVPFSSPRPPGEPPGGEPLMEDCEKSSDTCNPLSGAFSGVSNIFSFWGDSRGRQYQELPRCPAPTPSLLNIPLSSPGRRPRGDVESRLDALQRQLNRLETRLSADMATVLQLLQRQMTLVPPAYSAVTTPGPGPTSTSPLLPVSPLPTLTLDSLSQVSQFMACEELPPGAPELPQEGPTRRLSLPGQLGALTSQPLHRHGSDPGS

First: CCc1ccccc1NC(=S)NCC1CCN(c2ccc(OC)cc2)C1 (stereo not shown)
Second: COc1ccc(N2CCN(C(=O)CCc3ccc(S(=O)(=O)NCC(C)C)cc3)CC2)cc1
The “hERG current change (%, negative = inhibition) at 1uM” value of the first is higher: 0.763% for the first, -6.73% for the second.

First: Cc1cc(NC(=O)CSc2nc3c(C)cccc3cc2C#N)no1
Second: CCOC(=O)CSc1nc2c(c(-c3ccc(C)o3)c1C#N)CCCC2
The “hERG current change (%, negative = inhibition) at 1uM” value of the first is lower: 5.82% for the first, 10.1% for the second.

Going from `COc1cc(C(=O)OCC(=O)N2CCOCC2)c([N+](=O)[O-])cc1OC` to `CCOc1ccc(C(=O)Nc2ccc(N3CCN(C)CC3)cc2)cc1[N+](=O)[O-]`, the “hERG current change (%, negative = inhibition) at 1uM” value falls from 7.73% to -7.79%.

Compared with `O=C(O)C(=O)O.O=C1CN(C(=O)CNCc2cccc(Cl)c2)c2ccccc2N1`, `O=C1c2ccccc2C(=O)N1CCC(=O)N1CCCc2ccccc21` is lower in “hERG current change (%, negative = inhibition) at 1uM” value: 11.1% for the first, 3.54% for the second.

First: Cc1ccc(S(=O)(=O)N(CC(O)CN2CCCC2)c2ccccc2)cc1 (stereo not shown)
Second: CSc1ccc(CN2CCN(S(=O)(=O)Cc3ccccc3)CC2)cc1
The “hERG current change (%, negative = inhibition) at 1uM” value of the first is lower: -44.8% for the first, 8.23% for the second.

First: CC(C)N(Cc1nc(-c2ccccc2)no1)C(=O)C1CCCCC1
Second: CCN(C(=O)c1ccc2c(=O)n3c(nc2c1)CCCCC3)c1ccccc1C
The “hERG current change (%, negative = inhibition) at 1uM” value of the first is lower: 2.52% for the first, 11.6% for the second.

Compared with `Cc1c(C)c2ccc(OC(C)C(=O)NC3CC(C)(C)NC(C)(C)C3)cc2oc1=O` (stereo not shown), `COc1cccc(C(=O)COc2ccc3c(C)cc(=O)oc3c2)c1` is lower in “hERG current change (%, negative = inhibition) at 1uM” value: 14.3% for the first, 1.14% for the second.

Compared with `COC(=O)c1cccc(NC(=O)c2ccc[n+]([O-])c2)c1`, `COC(=O)c1cc(NS(=O)(=O)c2ccc(NCc3cccnc3)c(N)c2)cc(C(=O)OC)c1` is lower in “hERG current change (%, negative = inhibition) at 1uM” value: 17.9% for the first, -2.44% for the second.

First: COc1ccccc1NS(=O)(=O)c1ccc(C(=O)N2CCN(c3ccccc3)CC2)cc1
Second: COc1ccccc1CNC(=O)C1CCCN1S(=O)(=O)c1cccc2cccnc12 (stereo not shown)
The “hERG current change (%, negative = inhibition) at 1uM” value of the first is higher: 2.94% for the first, -2.06% for the second.

First: Cc1ccc(C(=O)OCC(=O)NCc2cc(C)c(O)c(C)c2)cc1S(=O)(=O)N1CCCCC1
Second: CCOc1ccc(CCNC(=O)c2cn(C)c3ccc(S(=O)(=O)N4CCOCC4)cc3c2=O)cc1OCC
The “hERG current change (%, negative = inhibition) at 1uM” value of the first is lower: -13.2% for the first, 10.1% for the second.

Going from `Cc1noc(C)c1S(=O)(=O)N1CCCC(C(=O)Nc2cccnc2)C1` (stereo not shown) to `Cc1c(S(=O)(=O)N2CCCC(C)C2)c(=O)n(C)c(=O)n1C` (stereo not shown), the “hERG current change (%, negative = inhibition) at 1uM” value falls from 8.75% to 3.4%.

Going from `O=C(COC(=O)c1ccc(O)cc1O)NCCN1C(=O)CSC1=O` to `CC(C)(C)c1ccc(OCC(=O)NCCN2CCOCC2)cc1.Cl`, the “hERG current change (%, negative = inhibition) at 1uM” value falls from 12.8% to 11.6%.

Compared with `O=C(Nc1ccc(Br)cn1)c1cccc(-c2cc3ccccc3oc2=O)c1`, `O=C(c1cc2ccccc2oc1=O)N(Cc1cccs1)Cc1cccs1` is lower in “hERG current change (%, negative = inhibition) at 1uM” value: 14.7% for the first, -8.26% for the second.

First: O=C(O)c1cccc(-c2ccc3c(c2)OCO3)c1
Second: COc1cccc(-c2cc(C(=O)NCc3ccco3)no2)c1
The “hERG current change (%, negative = inhibition) at 1uM” value of the first is higher: 16.2% for the first, 10.1% for the second.

Compared with `CC(C(=O)NN=C(c1ccccc1)c1ccccc1)N1CCOCC1` (stereo not shown), `CC(C(=O)N1CCOCC1)N1c2cccc3cccc(c23)S1(=O)=O` (stereo not shown) is higher in “hERG current change (%, negative = inhibition) at 1uM” value: -5.45% for the first, 9.87% for the second.

Going from `C=CCOc1ccc(Br)cc1CNCC.Cl` to `Oc1ccccc1CNc1ccc(Br)cn1`, the “hERG current change (%, negative = inhibition) at 1uM” value rises from 3.49% to 9.74%.

Going from `CC(CNC(=O)CCc1nnc2ccc(N3CCC4(CC3)OCCO4)nn12)c1ccccc1` (stereo not shown) to `O=C(NCc1ccccc1)N1CCC(c2nc3ccccc3[nH]2)CC1`, the “hERG current change (%, negative = inhibition) at 1uM” value falls from 9.41% to 0.621%.

Going from `N#Cc1c(C(F)(F)F)cc(-c2ccccc2)nc1SCC(=O)N1CCOCC1` to `Clc1ccc(OCc2cc(-c3ccccc3)no2)cc1Cl`, the “hERG current change (%, negative = inhibition) at 1uM” value rises from 5.68% to 16.2%.

First: COc1ccccc1CNC(=O)c1cc(C2CC2)nc2c1cnn2C(C)C
Second: Cc1cc(C)n2ncc(C(=O)NCCc3ccccc3)c2n1
The “hERG current change (%, negative = inhibition) at 1uM” value of the first is higher: 7.17% for the first, 4.72% for the second.

Going from `CC(=O)Nc1ccc(S(=O)(=O)NCCC(=O)OCC(=O)c2ccc(Br)cc2)cc1` to `CC(=O)Nc1ccc(OCC(=O)NCCc2ccc(Cl)cc2)cc1`, the “hERG current change (%, negative = inhibition) at 1uM” value rises from -6.19% to 10.9%.

Compared with `Cl.c1ccc(Cc2ccc(OCCn3ccnc3)cc2)cc1`, `CCCn1nc(C(=O)NNC(=O)CCCOc2ccc(C)cc2)c2ccccc2c1=O` is lower in “hERG current change (%, negative = inhibition) at 1uM” value: 10.5% for the first, -2.89% for the second.

First: CCN(Cc1ccccc1)Cc1cc(OC)cc(OC)c1
Second: COc1ccc(Oc2nc(SC)nc3ccccc23)cc1
The “hERG current change (%, negative = inhibition) at 1uM” value of the first is lower: -15.1% for the first, 2.03% for the second.

Compared with `O=C1C2CC=C(Cl)CC2C(=O)N1CCCCCCN1C(=O)C2CC=C(Cl)CC2C1=O` (stereo not shown), `CCN1C(=O)C(=Cc2c(C)n(CC(=O)NCC3CCCO3)c3ccccc23)C(=O)N(CC)C1=S` (stereo not shown) is higher in “hERG current change (%, negative = inhibition) at 1uM” value: 2.9% for the first, 24.9% for the second.

Compared with `CCOC(=O)c1[nH]c2ccccc2c1NC(=O)CC(C)C`, `CCOC(=O)C(C)c1c(C(=O)c2ccc(C)nc2)c2ccccc2n1C` (stereo not shown) is lower in “hERG current change (%, negative = inhibition) at 1uM” value: 12.2% for the first, 11.4% for the second.

Going from `Cc1ccc(CNc2oc(COc3ccccc3Cl)nc2C#N)cc1` to `Cc1ccc(S(=O)(=O)NCCNc2ccccc2[N+](=O)[O-])cc1`, the “hERG current change (%, negative = inhibition) at 1uM” value falls from 12% to 9.2%.

First: Cn1c(C(=O)O)c(CC(=O)Nc2ccc(F)cc2F)c2ccccc21
Second: Cn1c(C(C#N)C(=O)c2sc3ccccc3c2Cl)nc2ccccc21 (stereo not shown)
The “hERG current change (%, negative = inhibition) at 1uM” value of the first is lower: 1.29% for the first, 11.6% for the second.

First: C=CCn1c(N2CCN(c3ccc(OC)cc3)CC2)nc2c1c(=O)[nH]c(=O)n2C
Second: Cc1ccc(-c2c3c(=O)n(C)c(=O)n(C)c3cn2N2CCOCC2)cc1
The “hERG current change (%, negative = inhibition) at 1uM” value of the first is higher: -4.37% for the first, -25.1% for the second.

Going from `O=C(Nc1ccc(Oc2ncccn2)cc1)c1ccco1` to `CC(=O)Nc1cccc(Oc2cnc3ccccc3n2)c1`, the “hERG current change (%, negative = inhibition) at 1uM” value falls from 12.1% to -2.79%.

Going from `O=C(NCCc1c[nH]c2ccccc12)c1ccc(S(=O)(=O)NCc2ccco2)cc1` to `C=CCNC(=O)c1ccccc1NC(=O)c1ccc(Cl)c(S(=O)(=O)Nc2ccccc2)c1`, the “hERG current change (%, negative = inhibition) at 1uM” value falls from 12.3% to 5.68%.

First: CN(Cc1ccc(Cl)c(Cl)c1)C(=O)C1=CC=CN2CCS(=O)(=O)N=C12
Second: CN(C)S(=O)(=O)c1cc(NC(=O)COC(=O)Cc2ccc(Cl)cc2Cl)ccc1Cl
The “hERG current change (%, negative = inhibition) at 1uM” value of the first is higher: 8.22% for the first, 7.82% for the second.

Going from `COc1cc(OC)c(OC)cc1/C=N/NC(=O)c1cc(-c2cccn2C)n[nH]1` to `COc1ccc(NC(=O)CN(c2ccc(C)cc2)S(C)(=O)=O)c(OC)c1`, the “hERG current change (%, negative = inhibition) at 1uM” value rises from -11.6% to 4.53%.

First: O=C(c1ccco1)N1CCN(C(=O)c2cnn3cccnc23)CC1
Second: CN1CCN(C(=S)NC(=O)/C=C/c2cccs2)CC1
The “hERG current change (%, negative = inhibition) at 1uM” value of the first is higher: 13.5% for the first, 4.13% for the second.

Compared with `O=C1C(=O)N(c2ccccc2)c2ccccc21`, `CC1CC(C)(C)N(C(=O)CN2C(=O)c3ccccc3C2=O)c2ccccc21` (stereo not shown) is higher in “hERG current change (%, negative = inhibition) at 1uM” value: -4.46% for the first, 11.2% for the second.

Going from `N#CC(C#N)=Cc1ccccc1OCc1ccccc1` to `CCOC(=O)CC(C(=O)OCC)P(=O)(c1ccccc1)c1ccccc1` (stereo not shown), the “hERG current change (%, negative = inhibition) at 1uM” value falls from 14.3% to 7.84%.

Compared with `C/C=C/C(=O)N1CC2(CC(c3cccc(NC(=O)CC)c3)=NO2)C[C@H]1C(N)=O` (stereo partly shown), `O=C(NCCCc1ccccc1)C1CC1` is higher in “hERG current change (%, negative = inhibition) at 1uM” value: -5.78% for the first, 17.2% for the second.

First: Cc1ccc(C)c(NC(=O)C(Sc2nnc(-c3cccs3)o2)c2ccccc2)c1 (stereo not shown)
Second: Cc1ccc(S(=O)(=O)N(C)C)cc1-n1c(SCC(=O)N(C)C)nc2ccccc2c1=O
The “hERG current change (%, negative = inhibition) at 1uM” value of the first is lower: 6.04% for the first, 8.88% for the second.

Going from `O/N=C1\CCc2cc(Cl)ccc21` to `Cc1cc(N)n(Cc2ccc(Cl)cc2)n1`, the “hERG current change (%, negative = inhibition) at 1uM” value rises from -3.06% to 20.6%.

First: O=C(NCC1CCCO1)C1CCCN(Cc2cnn(-c3ccccc3)c2-n2cccc2)C1 (stereo not shown)
Second: O=C(NCCCN1CCCC1)c1ccc2c(c1)N(Cc1ccccc1F)C(=O)c1ccccc1S2=O (stereo not shown)
The “hERG current change (%, negative = inhibition) at 1uM” value of the first is higher: 5.23% for the first, -2.51% for the second.

Compared with `O=Cc1ccc(O)cc1O`, `CC(C)(C)C(=O)N1CCN(c2ccc([N+](=O)[O-])cc2Cl)CC1` is lower in “hERG current change (%, negative = inhibition) at 1uM” value: 1.69% for the first, -5.53% for the second.

Compared with `CSc1nccc(-c2c(-c3ccc(Cl)cc3)noc2C)n1`, `Nc1ccc(Oc2ccc(Cl)cc2)cc1` is higher in “hERG current change (%, negative = inhibition) at 1uM” value: 7.37% for the first, 27.1% for the second.

Compared with `O=C(N=Nc1c(O)[nH]c2ccc([N+](=O)[O-])cc12)c1ccccc1Cl`, `O=C(N/N=C/c1ccc([N+](=O)[O-])cc1)c1cc(C2CC2)[nH]n1` is lower in “hERG current change (%, negative = inhibition) at 1uM” value: 10.8% for the first, -0.365% for the second.

Going from `CCOc1cc(C2C(C(=O)O)c3cc(OCC)c(OCC)cc3C(=O)N2C)ccc1O` (stereo not shown) to `CC(=O)C1=C(C)Nc2ncnn2C1c1ccc(F)cc1` (stereo not shown), the “hERG current change (%, negative = inhibition) at 1uM” value rises from 9.86% to 16.7%.

Going from `CCCN1CCN(C(=O)c2ccc3nc(CC)c(CC)nc3c2)CC1` to `COc1ccc(-c2c(C)n([O-])c3c([n+]2=O)CCCC3)cc1`, the “hERG current change (%, negative = inhibition) at 1uM” value falls from 13.6% to 5.38%.

First: Cc1ccccc1Oc1cc(-n2ncc(Cl)c(Cl)c2=O)ncn1
Second: NC(=O)c1nsc(C(=O)N(Cc2cccnc2)C(C(=O)NC2CCCCC2)c2ccc(F)cc2)c1N (stereo not shown)
The “hERG current change (%, negative = inhibition) at 1uM” value of the first is higher: 10.4% for the first, 8.14% for the second.

From paper PMC4336329 (PLoS ONE, 2015)
